{
  "source": "the supplement of paper PMC11417369",
  "note": "The list shows a part of the results.",
  "data": [
    {"tested_on": "PfHDP1 homeodomain (GST-tagged)", "assay": "gcPBM binding intensity (ln(normalized median fluorescence intensity)); higher = stronger DNA binding", "procedure,_shortened": "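Each value is the highest Masliner-normalised natural-log median intensity across replicate spots of either orientation of a probe. The probes were primer-extended double-stranded 36-bp intergenic genomic sequences on an Agilent 4 × 180k array, alongside negative controls, exposed for 1 h to GST-tagged P. falciparum DNA-binding domains expressed in E. coli. Bound protein was picked up with Alexa488 anti-GST antibody and scanned at 488 nm.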", "values": [
      {"sequence": "TACTTTTATATAGAAAGTACATACAATTCATAGAAT [XGTACX_site2182]", "gcPBM binding intensity (ln)": 6.18},
      {"sequence": "TTTTTTTTTTTTTTGTGTACATATAATGCACATTAT [XGTACX_site6505]", "gcPBM binding intensity (ln)": 10.1},
      {"sequence": "TATAAAAAGCATAACACACACATGTCAATATAAATA [CACACA_site6648]", "gcPBM binding intensity (ln)": 6.7},
      {"sequence": "TATTGAAACCCACACGAACACACGTATTTCATAAAC [CACACA_site251]", "gcPBM binding intensity (ln)": 6.51},
      {"sequence": "ATGGACATTTTATAAATCACAATGGATATTTTATAA [CACACA_negctrl_site1830]", "gcPBM binding intensity (ln)": 6.11},
      {"sequence": "TACATCATCTATAAGGTGCATTTTAGTTCTATTAAA", "gcPBM binding intensity (ln)": 8.99},
      {"sequence": "TATATATTTTATTATTGTACGAATTATTTATTTTAC [XGTACX_site8105]", "gcPBM binding intensity (ln)": 6.25},
      {"sequence": "TTTTTTCTAATATCTTTGCCTTTTTCTTTATTTATT [CACACA_negctrl_site1053]", "gcPBM binding intensity (ln)": 6.77},
      {"sequence": "TATACTCATTTTTATACACACTTGTTTTATAAAACG [CACACA_site4561]", "gcPBM binding intensity (ln)": 7.16},
      {"sequence": "ATATATATATATATATGTACATATGTATGTGTTTGT [XGTACX_site397]", "gcPBM binding intensity (ln)": 9.35},
      {"sequence": "CTATATGTATAAAGTTGTACAGTTTTTCAAAGTTAA [XGTACX_site6652]", "gcPBM binding intensity (ln)": 6.34},
      {"sequence": "AAATTTATTATGAACATACACACAAAAAAAAAAAGT [CACACA_site2053]", "gcPBM binding intensity (ln)": 7.02},
      {"sequence": "AAAATAACAAAATAAAGTACTTTTAAAAGATATAAT [XGTACX_site7632]", "gcPBM binding intensity (ln)": 6.59},
      {"sequence": "AAAAGTAACAAAGCTACACACATTTAAATAAACATA [CACACA_site1421]", "gcPBM binding intensity (ln)": 6.64},
      {"sequence": "TTTTTAATTCAAACAATAATATGTTATATTTCAAAT [TGCATGCA_negctrl_site27]", "gcPBM binding intensity (ln)": 6.22},
      {"sequence": "GATTTTCTAATTTCTACACACATATAAGAATATTCA [CACACA_site7340]", "gcPBM binding intensity (ln)": 6.36},
      {"sequence": "TGTATAAAACATGGGTGTACTGAACTCAATCATATA [XGTACX_site1215]", "gcPBM binding intensity (ln)": 6.52},
      {"sequence": "GTTTTACACAGACATGCATGTGAAAATTTGATGGTA [TGCATGCA_site308]", "gcPBM binding intensity (ln)": 6.64},
      {"sequence": "TATCATCATGTATGTACACACATACCTATATTATGT [CACACA_site6768]", "gcPBM binding intensity (ln)": 6.71},
      {"sequence": "TTTATTTCTATATTTACATGCAAAGGGTTAGTTATA [TGCATGCA_site983]", "gcPBM binding intensity (ln)": 6.58},
      {"sequence": "AAGAAAAAGAATAGACGGACAACTAATATAAAATAT [XGTACX_site7905]", "gcPBM binding intensity (ln)": 6.53},
      {"sequence": "TTTTTTTTTTTCATGTGTACATATATTTTCACTTTA [XGTACX_site4475]", "gcPBM binding intensity (ln)": 6.64},
      {"sequence": "GATCTTTTTTTTCTTACTTTACAATTTTTTTTTTAC [XGTACX_negctrl_site101]", "gcPBM binding intensity (ln)": 6.94},
      {"sequence": "ATTATATAAATTATATGTACGTATTTTTTTTTTTTT [XGTACX_site1908]", "gcPBM binding intensity (ln)": 6.2}
    ]}
  ]
}
